± gives the standard deviation of the averaged measurements. This is one part of the list.

In this assay the test system is PfAP2-LT AP2 domain (GST-tagged). The assay is described as follows: gcPBM binding intensity (ln(normalized median fluorescence intensity)); higher = stronger DNA binding. The method, boiled down:
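Each value is the highest Masliner-normalised natural-log median intensity across replicate spots of either orientation of a probe. The probes were primer-extended double-stranded 36-bp intergenic genomic sequences on an Agilent 4 × 180k array, alongside negative controls, exposed for 1 h to GST-tagged P. falciparum DNA-binding domains expressed in E. coli. Bound protein was picked up with Alexa488 anti-GST antibody and scanned at 488 nm.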
Regarding “ATTATATATACAACAAGTACAAAAGAAAAATATTAT [XGTACX_site2914]”, the “gcPBM binding intensity (ln)” value was determined as 8.76 ± 0.49.

Consider “TTTGTAAAAGGTCATACACACATATTCAAAAGAAGT [CACACA_site2947]”, for which the “gcPBM binding intensity (ln)” value came to 9.05 ± 0.37.

With “AAAAAAAAAAAATACACACACACATATAAATATGTA [CACACA_site6900]”, the “gcPBM binding intensity (ln)” value stood at 9.62 ± 0.32.

“GTTTATATATGCTTATAATTTTCAATTGTTTTACAA [TGCATGCA_negctrl_site384]”: the “gcPBM binding intensity (ln)” value came out at 8.63 ± 0.46.

As for “ATATATATATATAATTGTACATTTTTAACCTTAACA [XGTACX_site7910]”, the “gcPBM binding intensity (ln)” value came out at 8.8 ± 0.53.

Consider “TTTTATGTTTTTTTTATAAATATTAAAATTCTATAT [CACACA_negctrl_site1477]”, for which the “gcPBM binding intensity (ln)” value was 8.28 ± 0.52.

Consider “ATATTGTTATATGTTTGTACATATTTTTTATATTTT [XGTACX_site6834]”, for which the “gcPBM binding intensity (ln)” value was 8.94 ± 0.47.

“AATGTTAAAAATGAAAGTACATGGAATTTATTATTT [XGTACX_site4095]”: the “gcPBM binding intensity (ln)” value is 8.61 ± 0.41.

In the case of “TTATATGTATTTCTTTGTACACATTTTTATATATAT [XGTACX_site1462]”, the “gcPBM binding intensity (ln)” value stood at 9.11 ± 0.42.

For the sequence “CACTTCAAAAAAATATGTACACATATATATATATAT [XGTACX_site3075]”, the “gcPBM binding intensity (ln)” value came to 9.365 ± 0.035.

“ATTATGCACCAACACACACACACACCCCTAAAAAAT [CACACA_site2568]”: the “gcPBM binding intensity (ln)” value stood at 10.04 ± 0.057.

For “TATCATTTTTTTAAAACACACATAATAATATAAATA [CACACA_site2845]”, the “gcPBM binding intensity (ln)” value is 8.39 ± 0.36.

Regarding “TAAATTTTATAAATCTGTACATATGAGCAAGAACAT [XGTACX_site7400]”, the “gcPBM binding intensity (ln)” value was 8.8 ± 0.39.

Turning to “TTATTAGGTATATATGCACACAATACCCAAAACAAC [CACACA_site4221]”, the “gcPBM binding intensity (ln)” value is 9.04 ± 0.31.

For “GGTAATAAACAATGAAGTACGTAAAGGTAAAATATT [XGTACX_site2647]”, the “gcPBM binding intensity (ln)” value came out at 9.36 ± 0.52.

For “TGTAAATATAAATGTAATAAATATGTAAAAATAAAT [XGTACX_negctrl_site171]”, the “gcPBM binding intensity (ln)” value was determined as 8.74 ± 0.46.

As to “ATTTAATTTTCATGATGTACTATAGTTTAATGCACA [XGTACX_site1624]”, the “gcPBM binding intensity (ln)” value turned out to be 8.83 ± 0.34.

In the case of “TAATAATCAAACTATACACACATAAATAGATATATA [CACACA_site6220]”, the “gcPBM binding intensity (ln)” value amounted to 8.99 ± 0.39.

Regarding “TATTTTCAAAAATATACACACACATAAATATATGTA [CACACA_site8160]”, the “gcPBM binding intensity (ln)” value was determined as 9.1 ± 0.26.

As to “TTCCTTCAAAATTTAAGTAATAAGATAAAAATATAA [CACACA_negctrl_site1696]”, the “gcPBM binding intensity (ln)” value was determined as 8.24 ± 0.4.

Regarding “CACAGATAAATTAACACACACACACGGATATTTATA [CACACA_site7788]”, the “gcPBM binding intensity (ln)” value was found to be 10 ± 0.085.

“ATGTATACAAATATATGTACGTATGTTCTCTTCTTT [XGTACX_site7865]”: the “gcPBM binding intensity (ln)” value was 9.01 ± 0.45.

Regarding “TAAAGAGTTACCATTTGTACTTACGCACACATAAAA [XGTACX_site3145]”, the “gcPBM binding intensity (ln)” value was 9.02 ± 0.44.

Regarding “TTTTTATGTTATCAAATAAATATAAATATAATTCAT [CACACA_negctrl_site1522]”, the “gcPBM binding intensity (ln)” value came to 8.12 ± 0.38.

On to “TATATTTGAAATATATGTACTTATAATACAGTTTAA [XGTACX_site8039]”, for which the “gcPBM binding intensity (ln)” value is 8.4 ± 0.46.

For the sequence “GAATGAATACGTTTTACACACTTGAATATAATTTCA [CACACA_site989]”, the “gcPBM binding intensity (ln)” value amounted to 8.78 ± 0.36.

On to “ATATATAAATTTAATACACACCCAAAAAAAAAAAAA [CACACA_site7719]”, for which the “gcPBM binding intensity (ln)” value came to 8.87 ± 0.37.

With “TAAATATATAAACACACACACATTAATACAGATATT [CACACA_site5851]”, the “gcPBM binding intensity (ln)” value worked out at 9.69 ± 0.23.

“AAAATTATAAAATGGGCACACATGAAGATTGTAGTA [CACACA_site2226]”: the “gcPBM binding intensity (ln)” value came to 8.88 ± 0.49.

“ATTTACCCTTGCCATGCACACTTTTTTATAGAAAAT [CACACA_site5857]”: the “gcPBM binding intensity (ln)” value turned out to be 9.12 ± 0.38.

On to “TATTAATACAGACACACACACACACTAATTAAAATA [CACACA_site7967]”, for which the “gcPBM binding intensity (ln)” value stood at 9.96 ± 0.2.

For “AATATATAATTAATTGCACACCTTGTCACGCCAAAA [CACACA_site1174]”, the “gcPBM binding intensity (ln)” value stood at 8.95 ± 0.36.

For “ATCTATATTTTTATAACACACAATGATGTACATTAC [CACACA_site6633]”, the “gcPBM binding intensity (ln)” value is 9.12 ± 0.35.

Regarding “TGAAAATATTTTATATGTACATATATTATCAATACA [XGTACX_site92]”, the “gcPBM binding intensity (ln)” value amounted to 8.64 ± 0.38.

For “TAGAATAATCTATAAACACACAAACCCAACAAAAGA [CACACA_site6132]”, the “gcPBM binding intensity (ln)” value was 9.28 ± 0.4.

Turning to “TTATTTATTTTTTCATGTACTTAAATATATTAATGT [XGTACX_site5804]”, the “gcPBM binding intensity (ln)” value amounted to 8.62 ± 0.47.

As to “AGCTATAATAAATATACACACATATATAAATATGTA [CACACA_site6583]”, the “gcPBM binding intensity (ln)” value turned out to be 8.97 ± 0.4.

Regarding ATATATATATAATAAGTGCAAAAATAATGACCTATA, the “gcPBM binding intensity (ln)” value stood at 9.04 ± 0.42.

For the sequence “AAATATATATAAGCGTGTACACATTCTGAGTGTTGT [XGTACX_site1088]”, the “gcPBM binding intensity (ln)” value is 9.13 ± 0.41.

On to “ATAATAAAAATAAAATGTACATACATAAATATATAT [XGTACX_site6228]”, for which the “gcPBM binding intensity (ln)” value was determined as 8.89 ± 0.46.

“TATCGTTTTATTCGGTTGCACCAAAAAAATAAAATA [GTGCAC_site9408]”: the “gcPBM binding intensity (ln)” value was determined as 8.26 ± 0.47.

For the sequence “AAAGTATAACGGATACCATTTATGTGATTATTTTGT [XGTACX_negctrl_site188]”, the “gcPBM binding intensity (ln)” value amounted to 8.73 ± 0.45.

Consider “AAAAAAAATTAAAATAAAATATAAATATAAAATATA [GTGCAC_negctrl_site714]”, for which the “gcPBM binding intensity (ln)” value worked out at 8.39 ± 0.48.

Regarding “TATATATTTTTATGCACACACAAAGAAAATTTTCCT [CACACA_site2863]”, the “gcPBM binding intensity (ln)” value was 9.26 ± 0.5.

Take “TGTATGTATTTGTGTAGTACGCATAAGTAATAAAAC [XGTACX_site6704]”: the “gcPBM binding intensity (ln)” value was 9.03 ± 0.38.

(Values after the supplement of paper PMC11417369.)
